# Results from the supplement of paper PMC8728848.
# This is one part of the list.
# B1: Pbx1 (Cryptococcus neoformans) (protein)
# chain: ATTKCLVSGDQDSINNALALGGEGTTVTLCPGSVHRLNSSIIFTAPSQTLTTLGNPKDRNRAMLVVDGEDLACAIRADCKQCSHAMIRSLVIDGNRPQLLRIPKGDALIEVGNAESQTVRDCKLYEPRGWSALHFREGDERQCRFGHIVDNEIGPCGEEWDDEYDSMDETKPLWGNPRADGISLACKDSIVERNVVYDATDGAIVLFGSAGSTVKNNHVYARTRVILGGINLVDYEPWDGDYTNVKVHHNHLYALGRYFKVGIVIGPASWSDDTESVVHSASVTDNEFSGGYWGYGIVVASAKNFEVLRNKVIWDGEQGVARFSGVPGSRCPKAPENGKPTAFLINRGSAKGIFQDDFVNGEVQHIICLNPDQDPPYKPWRFRDSPEAIAAKQAENPTANSAFDSRIAEALVSYQMSLLNSMDAMTQKVEHLTNPIVDDALPFVHEHERAEADKKARQEASRKEKESGNKDVDMLNVKVEELEKSGRRLKKALDGLKSDFEGLSGRLKKSADENKPIIETIFVTSQNLLLGATSQQN
# Experiments:
# Test in all cases: glycan array binding signal (z-score within array); higher = stronger binding
# Settings in all cases: glycan notation: IUPAC condensed, linker removed
# [1] = molecular target: Gal(a1-3)Gal(b1-4)GlcNAc(b1-2)Man(a1-3)[Gal(a1-3)Gal(b1-4)GlcNAc(b1-2)Man(a1-6)]Man(b1-4)GlcNAc(b1-4)GlcNAc
# Method in brief: (§1)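 Glycan array binding is given as a within-array Z-score, which can be read as non-binding when negative. The arrays, 3228 of them, came from the Consortium for Functional Glycomics database and were retained only where the protein sequence was available. Z-scores were averaged across arrays of the same protein sequence at different concentrations or buffers and across linkers.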
# [2] = molecular target: Gal(a1-3)Gal(b1-4)GlcNAc(b1-3)GalNAc
# Method in brief: as §1
# [3] = molecular target: Gal(a1-3)Gal(b1-4)GlcNAc(b1-6)GalNAc
# Method in brief: as §1
# [4] = molecular target: Gal(a1-3)Gal(b1-4)[Fuc(a1-3)]GlcNAc
# Method in brief: as §1
# [5] = molecular target: Gal(a1-3)Gal(b1-4)[Fuc(a1-3)]GlcNAc(b1-2)Man(a1-3)[Gal(a1-3)Gal(b1-4)[Fuc(a1-3)]GlcNAc(b1-2)Man(a1-6)]Man(b1-4)GlcNAc(b1-4)GlcNAc
# Method in brief: as §1
# [6] = molecular target: Gal(a1-3)GalNAc
# Method in brief: as §1
# [7] = molecular target: Gal(a1-3)[Gal(a1-4)]Gal(b1-4)GlcNAc
# Method in brief: as §1
# [8] = molecular target: Gal(a1-4)Gal(b1-3)GlcNAc(b1-2)Man(a1-3)[Gal(a1-4)Gal(b1-3)GlcNAc(b1-2)Man(a1-6)]Man(b1-4)GlcNAc(b1-4)GlcNAc
# Method in brief: as §1
# [9] = molecular target: Gal(a1-4)Gal(b1-4)Glc
# Method in brief: as §1
# [10] = molecular target: Gal(a1-4)Gal(b1-4)GlcNAc
# Method in brief: as §1
# [11] = molecular target: Gal(a1-4)Gal(b1-4)GlcNAc(b1-2)Man(a1-3)[Gal(a1-4)Gal(b1-4)GlcNAc(b1-2)Man(a1-6)]Man(b1-4)GlcNAc(b1-4)GlcNAc
# Method in brief: as §1
# [12] = molecular target: Gal(a1-4)Gal(b1-4)GlcNAc(b1-3)Gal(b1-4)Glc
# Method in brief: as §1
# [13] = molecular target: Gal(a1-4)GlcNAc
# Method in brief: as §1
# [14] = molecular target: Gal(a1-6)Glc
# Method in brief: as §1
# [15] = molecular target: Gal(b1-2)Gal
# Method in brief: as §1
# [16] = molecular target: Gal(b1-3)Gal
# Method in brief: as §1
# [17] = molecular target: Gal(b1-3)Gal(b1-4)GlcNAc
# Method in brief: as §1
# [18] = molecular target: Gal(b1-3)GalNAc
# Method in brief: as §1
# [19] = molecular target: Gal(b1-3)GalNAc(a1-3)[Fuc(a1-2)]Gal(b1-4)Glc
# Method in brief: as §1
# [20] = molecular target: Gal(b1-3)GalNAc(a1-3)[Fuc(a1-2)]Gal(b1-4)GlcNAc
# Method in brief: as §1
# [21] = molecular target: Gal(b1-3)GalNAc(b1-3)Gal
# Method in brief: as §1
# [22] = molecular target: Gal(b1-3)GalNAc(b1-3)Gal(a1-4)Gal(b1-4)Glc
# Method in brief: as §1
# [23] = molecular target: Gal(b1-3)GalNAc(b1-4)Gal(b1-4)Glc
# Method in brief: as §1
# [24] = molecular target: Gal(b1-3)GalNAc(b1-4)[Neu5Ac(a2-3)]Gal(b1-4)Glc
# Method in brief: as §1
# [25] = molecular target: Gal(b1-3)GlcNAc
# Method in brief: as §1
# [26] = molecular target: Gal(b1-3)GlcNAc(a1-3)Gal(b1-4)GlcNAc
# Method in brief: as §1
# [27] = molecular target: Gal(b1-3)GlcNAc(a1-6)Gal(b1-4)GlcNAc
# Method in brief: as §1
# [28] = molecular target: Gal(b1-3)GlcNAc(b1-2)Man
# Method in brief: as §1
# [29] = molecular target: Gal(b1-3)GlcNAc(b1-2)Man(a1-3)[Gal(b1-3)GlcNAc(b1-2)Man(a1-6)]Man(b1-4)GlcNAc(b1-4)GlcNAc
# Method in brief: as §1
# [30] = molecular target: Gal(b1-3)GlcNAc(b1-2)Man(a1-3)[Gal(b1-3)GlcNAc(b1-2)Man(a1-6)]Man(b1-4)GlcNAc(b1-4)[Fuc(a1-6)]GlcNAc
# Method in brief: as §1
# [31] = molecular target: Gal(b1-3)GlcNAc(b1-2)Man(a1-3)[GlcNAc(b1-4)][Gal(b1-3)GlcNAc(b1-2)Man(a1-6)]Man(b1-4)GlcNAc(b1-4)GlcNAc
# Method in brief: as §1
# [32] = molecular target: Gal(b1-3)GlcNAc(b1-2)[Gal(b1-3)GlcNAc(b1-6)]Man(a1-6)[Gal(b1-3)GlcNAc(b1-2)Man(a1-3)]Man(b1-4)GlcNAc(b1-4)GlcNAc
# Method in brief: as §1
# [33] = molecular target: Gal(b1-3)GlcNAc(b1-3)Gal(b1-3)GlcNAc
# Method in brief: as §1
# [34] = molecular target: Gal(b1-3)GlcNAc(b1-3)Gal(b1-4)Glc
# Method in brief: as §1
# [35] = molecular target: Gal(b1-3)GlcNAc(b1-3)Gal(b1-4)GlcNAc
# Method in brief: as §1
# [36] = molecular target: Gal(b1-3)GlcNAc(b1-3)Gal(b1-4)GlcNAc(b1-2)Man(a1-3)[Gal(b1-3)GlcNAc(b1-3)Gal(b1-4)GlcNAc(b1-2)Man(a1-6)]Man(b1-4)GlcNAc(b1-4)GlcNAc
# Method in brief: as §1
# [37] = molecular target: Gal(b1-3)GlcNAc(b1-3)Gal(b1-4)GlcNAc(b1-2)[Gal(b1-3)GlcNAc(b1-3)Gal(b1-4)GlcNAc(b1-6)]Man(a1-6)[Gal(b1-3)GlcNAc(b1-3)Gal(b1-4)GlcNAc(b1-2)Man(a1-3)]Man(b1-4)GlcNAc(b1-4)[Fuc(a1-6)]GlcNAc
# Method in brief: as §1
binder,measurement,setting,value
B1,glycan array binding signal (z-score),[1],0.276
same,glycan array binding signal (z-score),[2],0.661
same,glycan array binding signal (z-score),[3],1.25
same,glycan array binding signal (z-score),[4],-0.987
same,glycan array binding signal (z-score),[5],1.75
same,glycan array binding signal (z-score),[6],-0.233
same,glycan array binding signal (z-score),[7],0.498
same,glycan array binding signal (z-score),[8],2.14
same,glycan array binding signal (z-score),[9],0.349
same,glycan array binding signal (z-score),[10],0.846
same,glycan array binding signal (z-score),[11],2.25
same,glycan array binding signal (z-score),[12],-0.696
same,glycan array binding signal (z-score),[13],-0.459
same,glycan array binding signal (z-score),[14],-0.908
same,glycan array binding signal (z-score),[15],-0.107
same,glycan array binding signal (z-score),[16],-0.01
same,glycan array binding signal (z-score),[17],-0.349
same,glycan array binding signal (z-score),[18],-0.314
same,glycan array binding signal (z-score),[19],-0.364
same,glycan array binding signal (z-score),[20],-0.408
same,glycan array binding signal (z-score),[21],-0.388
same,glycan array binding signal (z-score),[22],-0.278
same,glycan array binding signal (z-score),[23],0.348
same,glycan array binding signal (z-score),[24],-0.155
same,glycan array binding signal (z-score),[25],-0.546
same,glycan array binding signal (z-score),[26],-0.304
same,glycan array binding signal (z-score),[27],-0.457
same,glycan array binding signal (z-score),[28],0.676
same,glycan array binding signal (z-score),[29],-0.382
same,glycan array binding signal (z-score),[30],1.49
same,glycan array binding signal (z-score),[31],0.415
same,glycan array binding signal (z-score),[32],0.208
same,glycan array binding signal (z-score),[33],-0.112
same,glycan array binding signal (z-score),[34],-0.533
same,glycan array binding signal (z-score),[35],0.572
same,glycan array binding signal (z-score),[36],0.187
same,glycan array binding signal (z-score),[37],1.06
